# Results reported in PMC4336329 (PLoS ONE, 2015).
# The campaign covered roughly 310,000 compounds. About 14,000 (4.5%) showed an effect of 50% or more. The effect is printed as a negative number. The list shows a part of the results.
# Biological target: human ether-à-go-go-related gene (hERG) potassium channel (human, UniProt Q12809)
# Assay: primary screen, population patch clamp on CHO cells stably expressing hERG
# 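Note: peak tail current of the secondary pulse compared with the same well before compound.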
# Chain of human ether-à-go-go-related gene (hERG) potassium channel (Q12809 whole entry, looked up): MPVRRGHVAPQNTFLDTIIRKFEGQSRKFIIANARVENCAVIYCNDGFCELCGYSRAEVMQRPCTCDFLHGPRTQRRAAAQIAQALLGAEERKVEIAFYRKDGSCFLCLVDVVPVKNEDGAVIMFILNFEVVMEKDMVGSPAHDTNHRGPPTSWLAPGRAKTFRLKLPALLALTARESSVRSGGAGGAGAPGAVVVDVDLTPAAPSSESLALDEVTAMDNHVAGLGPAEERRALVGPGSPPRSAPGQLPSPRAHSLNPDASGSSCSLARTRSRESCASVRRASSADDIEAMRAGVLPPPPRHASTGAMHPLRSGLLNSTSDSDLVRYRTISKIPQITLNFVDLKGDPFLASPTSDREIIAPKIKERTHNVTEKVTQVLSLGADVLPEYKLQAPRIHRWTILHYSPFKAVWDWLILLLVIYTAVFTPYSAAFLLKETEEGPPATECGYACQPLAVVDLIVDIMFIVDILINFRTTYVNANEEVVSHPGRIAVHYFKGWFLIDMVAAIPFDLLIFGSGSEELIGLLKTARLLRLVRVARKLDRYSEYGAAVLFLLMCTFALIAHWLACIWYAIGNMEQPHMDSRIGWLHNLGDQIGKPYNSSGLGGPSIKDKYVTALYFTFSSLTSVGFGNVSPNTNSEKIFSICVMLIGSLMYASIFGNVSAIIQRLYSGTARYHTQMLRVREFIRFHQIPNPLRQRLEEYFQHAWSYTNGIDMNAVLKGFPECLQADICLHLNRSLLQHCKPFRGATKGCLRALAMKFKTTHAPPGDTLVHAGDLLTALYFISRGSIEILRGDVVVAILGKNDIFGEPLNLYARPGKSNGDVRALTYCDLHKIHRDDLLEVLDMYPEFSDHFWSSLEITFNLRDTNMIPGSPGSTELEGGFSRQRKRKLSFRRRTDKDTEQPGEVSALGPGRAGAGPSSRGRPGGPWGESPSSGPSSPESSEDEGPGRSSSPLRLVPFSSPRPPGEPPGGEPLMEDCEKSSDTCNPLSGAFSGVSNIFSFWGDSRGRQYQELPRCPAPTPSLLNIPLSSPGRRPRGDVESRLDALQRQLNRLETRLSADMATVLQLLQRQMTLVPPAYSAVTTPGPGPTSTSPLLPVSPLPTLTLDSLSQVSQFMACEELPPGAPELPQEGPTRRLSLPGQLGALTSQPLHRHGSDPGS
row,Compound,"hERG current change (%, negative = inhibition) at 10uM"
1,CC(C)c1ccc(S(=O)(=O)Nc2ccc(N3CCOCC3)cc2)cc1,-0.0665%
2,O=C(CSc1ccc(-c2ccccn2)nn1)Nc1cccc(F)c1,-26.8%
3,Cn1ccnc1SCC(=O)Nc1cccc(O)c1,4.2%
4,CC(C)CC1(C)NC(=O)N(CC(=O)N2C(C)CCCC2C)C1=O (stereo not shown),5.81%
5,NC(=O)COc1ccc(NS(=O)(=O)Cc2ccccc2)cc1,19.3%
6,O=C1N[C@@H](Cc2cn(S(=O)(=O)c3c(F)c(F)c(F)c(F)c3F)c3ccccc23)C(=O)N[C@H]1Cc1ccccc1,4.18%
7,CC(C)COCc1ccc(O)c2ncccc12,13.7%
8,CO/N=C/NC(=O)Cc1cn(-c2ncc(C(F)(F)F)cc2Cl)c2ccccc12,3.84%
9,c1ccc(Cn2cc(CSc3ccccc3)nn2)cc1,-11%
10,O=C(NNC(=O)c1ccc2c(c1)OCO2)NC12CC3CC(CC(C3)C1)C2,-3.25%
11,Cc1ccccc1NC(=O)n1ncc2cc(Cl)ccc21,23.6%
12,COc1ccccc1OCc1ccc(C(=O)N2CCCCC2)o1,2.22%
13,O=C(CN(Cc1ccco1)C(=O)c1nsc(Cl)c1Cl)NC1CCCCC1,17.6%
14,O=C(CN1CCN(Cc2ccccc2)CC1)N1CCCc2c1c(=O)oc1ccc(O)cc21,-14%
15,Cc1oc(C(C)(C)C)cc1C(=O)Nc1ccc2c(c1)OCCO2,8.81%
16,O=C(CSc1nnc(-c2ccccc2Br)o1)Nc1cccc2ccccc12,5.79%
17,COc1ccccc1C(=O)Nc1ccc(S(=O)(=O)N2CCN(C)CC2)cc1,0.775%
18,CC(C)(C)n1nnnc1CN(Cc1cccnc1)Cc1ccccc1Cl,-33%
19,COc1ccc(CCNC(=O)CCC(=O)NC2CCCC(C)C2C)cc1OC (stereo not shown),24.5%
20,COc1ccc(S(=O)(=O)N(CCc2ccccc2)CC(=O)N/N=C/c2ccc3c(c2)OCO3)cc1,-2.88%
21,C=CCN1C(=O)C(Cc2ccc(F)cc2)S/C1=N/N=C/c1ccco1 (stereo not shown),14.2%
22,Cc1csc(NC(=O)c2ccc(C)c(S(=O)(=O)N3CCOCC3)c2)n1,-20.1%

row,Compound,"hERG current change (%, negative = inhibition) at 10uM"
1,COCC(C)NC(=O)c1cc(-c2ccc(O)cc2)on1 (stereo not shown),0.634%
2,Cc1ccc(F)cc1NC(=O)CSc1ncccn1,8.32%
3,O=C(Nc1ccccc1-c1ccccc1)c1ccco1,-0.737%
4,CC(Oc1ccc(F)cc1)C(=O)Nc1cccc(-c2nn[nH]n2)c1 (stereo not shown),14.3%
5,CCCN(CCC)CCCNC(=O)CN1C(=O)CSc2ccc(S(=O)(=O)N3CCOCC3)cc21,20.2%
6,O=C(Nc1ccccc1C(=O)N1CCOCC1)c1ccco1,-6.53%
7,NC(=O)C1CCN(C(=O)c2ccc3c(c2)S(=O)(=O)c2ccccc2C3=O)CC1,2.8%
8,Cc1ccc(OCCNC(=O)Cc2ccc(F)cc2)cc1,-0.491%
9,C[C@@H](C(=O)Nc1ccc2ccccc2c1)[C@H]1C[C@]1(C)[C@H](NS(=O)(=O)c1ccccc1)c1ccccc1,6.27%
10,O=C(CN1CCN(c2ccccc2F)CC1)NCc1ccc(Cl)cc1,-19.1%
11,CCOC(=O)C1=C(COC(=O)c2sccc2C)NC(=O)NC1C (stereo not shown),-8.98%
12,Cc1ccccc1Cn1cnc2c(NS(C)(=O)=O)c(C)c(C)cc21,7.89%
13,O=C(O)C(=O)O.O=C(c1ccc(F)cc1)N1CCN(C2CC3CCC2C3)CC1 (stereo not shown),-2.85%
14,COc1ccc(Cn2c(=O)oc3ccc(C)cc32)cc1,1.22%
15,CC1CCN(CCCNC(=O)c2cc3c(Cl)nc4ccccc4c3s2)CC1,-66.2%
16,Cc1ccc(NS(=O)(=O)c2cc(C(=O)Nc3cccnc3)ccc2C)cc1,-14.1%
17,CCCCC[C@H]1CN(Cc2ccccc2)C(=O)[C@@H]1CC(=O)NCc1ccc(OC)cc1,-56.4%
18,CCOC(=O)Cn1c2ccc(F)cc2c2nc(C)sc21,-19.1%
19,O=C(OCC#CCSc1nnc(-c2ccc(Br)cc2)o1)c1ccco1,11.9%
20,CCCOC(=O)c1c(NC(=O)CCC(=O)O)sc2c1CCCCC2,-5.04%
21,Cc1ccc2c(n1)sc1c(-c3ccccc3)c(C#N)c(N)nc12,6.31%
22,O=c1ncc(F)c[nH]1,15.3%

row,Compound,"hERG current change (%, negative = inhibition) at 10uM"
1,CC1(c2ccc3c(c2)OCO3)NC(=O)N(CC(=O)c2ccc[nH]2)C1=O (stereo not shown),4.56%
2,O=C(NCCCn1cccn1)C1CCC(=O)N(CCc2ccccc2)C1 (stereo not shown),-10.3%
3,CCc1nnc(NC(=O)CCC(=O)N2CCN(Cc3ccccc3)CC2)s1,11.7%
4,Cc1nc(C(=O)N2CCc3c([nH]c4ccccc34)C2c2cc(F)ccc2F)cs1 (stereo not shown),-3.27%
5,Cn1c(NC(=S)Nc2ccccc2)nc2ccccc21,16.3%
6,O=C(Nc1nc(-c2ccccc2)cs1)c1cccc([N+](=O)[O-])c1C(=O)O,9.32%
7,Cc1c(-c2ccccc2)nc(N)c(C#N)c1-c1ccco1,12.6%
8,Cc1ccc(C(=O)Nc2nc(COc3ccccc3)cs2)s1,8.48%
9,NC(=O)COC(=O)[C@@H]1CC(O)CN1S(=O)(=O)c1ccc2c(c1)OCCO2 (stereo partly shown),13.1%
10,Cc1ccccc1N(C(=O)c1snc(C(N)=O)c1N)C(C(=O)NCC1CCCO1)c1ccc(N(C)C)cc1 (stereo not shown),13.8%
11,O=C(COc1ncnc2ccc(Br)cc12)NCc1ccco1,18%
12,Cn1cccc1Cc1nnc(SCC(=O)NCC2CCCO2)n1CCc1ccccc1 (stereo not shown),-10.8%
13,CCCc1nc2ccccc2c(C(=O)OCC(=O)c2ccc3c(c2)NC(=O)CO3)c1CC,-2.97%
14,CC(=O)Nc1nonc1NC(=O)CSc1ncn[nH]1,-11.3%
15,NC(=O)c1cc([N+](=O)[O-])ccc1NCc1ccc(C(=O)O)cc1,16.7%
16,COC(=O)[C@H]1[C@H](CCc2ccccc2)NC(=O)N(Cc2ccccc2)[C@@H]1C,-13.5%
17,O=P(O)(O)c1ccccc1OCCOCCOCCOCCOc1ccccc1P(=O)(O)O,-3.72%
18,CCOC(=O)C1(CCCc2ccccc2)CCN(Cc2nccn2CC)CC1,-74%
19,O=C(c1cccc2ccccc12)N1CCC(N2CCN(c3ccccc3)CC2)CC1,-22.7%
20,Cc1cc(Cn2nc(C(=O)NCc3cccc(Br)c3)cc2-c2ccccc2)on1,-20.3%
21,Cc1cc(C)cc(Oc2ccc(C(F)(F)F)cc2C#N)c1,7.94%
22,O=C(CCS(=O)(=O)c1ccccc1)Nc1ccc(Cl)cn1,-3.42%

row,Compound,"hERG current change (%, negative = inhibition) at 10uM"
1,COc1ccc(C(CNC(=O)COc2ccc(-c3ccccc3)cc2)N2CCOCC2)cc1 (stereo not shown),-9.9%
2,O=C1NC2CCc3nc4ccccc4c(=O)n3C2=Nc2ccccc21 (stereo not shown),-24.4%
3,Cn1c(CSCc2ccccc2)n[nH]c1=S,23.8%
4,N#CC(C(=O)c1ccco1)c1ccccn1 (stereo not shown),13.6%
5,O=S(=O)(N/N=C/c1ccc(OC2CSC2)cc1)c1ccccc1,8.4%
6,CCOP(=O)(OCC)/C(=C/N1CCCCC1)NC(=O)c1ccccc1,19.5%
7,O=C(CN1CCc2ccccc21)NC(c1ccccc1)c1ccccc1,-17.5%
8,Brc1ccc(-c2nnc(-c3ccccc3Br)o2)cc1,7.65%
9,CNC(=S)N1CCN(c2nc(-c3cccc(OC)c3)cs2)CC1,-12.1%
10,O=C1Nc2ccccc2Nc2ncccc21,3.26%
11,C/C(=N\NC(=O)c1ccc(C)cc1C)c1ccc(-n2ccnc2)cc1,-16.6%
12,COc1ccc(N2CCN(S(=O)(=O)c3ccc(-c4cnc(C5CC5)o4)cc3)CC2)cc1,17.6%
13,COC(=O)C1CN(C(=O)COc2cc(C)c(Cl)c(C)c2)c2ccccc2O1 (stereo not shown),18.9%
14,CCOC(=O)C1=C(CC)OC(N)=C(C#N)C1c1ccsc1 (stereo not shown),1.69%
15,Cc1ccc(C)c(NC(=O)c2cc[n+](C)cc2)c1.[I-],15.7%
16,CCN(CC)S(=O)(=O)c1ccc2oc(C(=O)Nc3ccc(OC)cc3OC)c(C)c2c1,4.93%
17,CC(C)C[C@H](NC(=O)C1CCN(S(=O)(=O)c2ccccc2)CC1)C(=O)NCc1ccccn1,11.1%
18,Cn1nnnc1NCc1c(F)cccc1Cl,-7.76%
19,COc1ccc(OCc2cc(C(=O)NC(C)Cc3cccnc3)no2)c(Cl)c1 (stereo not shown),-36.3%
20,CN(CCOc1ccc(Cl)cc1)C(=O)c1ccc(S(=O)(=O)N2CCOCC2)cc1,-74.9%
21,O=C(NCC(=O)N1CCN(C(c2ccccc2)c2ccccc2)CC1)c1ccc(Br)o1,8.38%
22,CC(=O)N(c1ccc(Cl)cc1)c1c[nH]c2ccccc12,-16.6%
